Assay results from article PMC6212790.
The other results are listed elsewhere or left out. At the low end of the ranking, values are background and their order means little.

Molecular target: T1, GST-Rok-C97-191 (UniProt O34857)
T1 sequence: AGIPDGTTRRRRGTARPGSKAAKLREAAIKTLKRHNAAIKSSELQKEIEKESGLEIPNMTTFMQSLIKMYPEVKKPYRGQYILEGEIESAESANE
Assay: protein binding microarray;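 note: rank score from −0.5 (least bound) to 0.5 (best bound)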
Settings: Rok is a gene silencer of Bacillus subtilis; high values mean tight binding; most listed sequences are background and not binding sites; double strand, one strand shown

Sequence	binding signal [E-score]
AGTTGTAG	0.248
CCATCTCC	-0.25
CAATTGAA	0.0478
AGGATATC	0.0896
GCGCATAA	0.108
AACACATT	0.127
GCTGGCCA	-0.144
ATACAACA	0.27
GAACACCA	-0.149
CGCCTCCA	0.0132
AGAGGTAT	0.124
ATGTAGAC	0.142
CAGGGCAG	-0.359
ACAGTGAA	0.0417
AAACACAG	-0.00421
ATCGTGGG	-0.0344
GTCCGATA	-0.0317
GACATCTC	-0.142
AAGGTACA	0.111
GTCCTACA	-0.0533
CAGGTTAC	-0.0355
GCGCTAGA	0.136
GAACCCGA	-0.0854
ATAGACAG	-0.177
CACGCTAA	-0.0228

Sequence	binding signal [E-score]
ATTGCACA	-0.0584
ACCATCAA	-0.143
ATGGTATG	0.126
CGGGGGCA	-0.295
CTTCCACA	-0.0282
GTCCCCTA	-0.296
AGGACGTG	0.0647
CGGCTCGA	-0.118
ATAGACTG	-0.0112
GACCTCGA	0.000845
ATACTGGC	0.0263
ATGGAGCA	-0.171
AACTAAAT	0.379
AGACGCTC	0.00269
AAGCGCTA	0.204
CACCTAGA	0.0776
ACGATTCC	0.099
CCTCAGTC	-0.363
CCGAATAA	0.0699
AAATAACA	0.224
ATGGCAAC	-0.109
CTTTAGGA	-0.068
CCCGAGTA	-0.0564
AAACGGCA	0.0136
CGTGTTGC	-0.0178

Sequence	binding signal [E-score]
GGCCTTAC	-0.232
GAGGTCCC	-0.241
CCTCAGCG	0.0698
GCGCCACA	-0.193
ACCGCGTC	0.00219
AATCGGGA	-0.199
GTTTACAA	0.144
GGCCCCCC	-0.388
ACTTCGAA	0.0207
CATAGATG	0.207
ACACGACT	0.0378
ACCTGTAT	0.0303
AGTAGTGG	0.253
AATACCGC	0.251
AGTAGCGA	0.255
CTGCTGAC	-0.164
CTGATGTC	-0.0573
CACGACAC	-0.123
AAAGTTGG	0.0929
ATATTAGA	0.243
CGTCAAAA	-0.0887
CTGCCGTC	-0.219
GAAATCGC	0.0982
CTTGAAGA	-0.0244
CGCCGTGA	0.0507

Sequence	binding signal [E-score]
GAGCATAC	-0.198
AGAAGCGG	-0.262
GGAGATCC	-0.135
TCTACGCA	-0.13
CTAATAAA	0.255
AAAGGAAT	0.0105
AACGCTAC	0.0526
AATATGAG	-0.0124
AGATACTG	0.148
AGGTAGCC	-0.193
GCCTACAC	-0.183
CAGACGCA	-0.191
GGGTAAAA	0.206
CTGTGGAC	-0.169
GAGTCAGC	-0.0411
ACCACGGT	0.0791
CCCTGGAG	-0.0929
CCGAACAG	-0.107
CGCCGCAC	-0.237
ATGGTCTC	-0.0143
GTCGGTAA	0.209
CCTTGTCG	-0.0704
AATCAAGC	-0.123
AAGGCCAG	-0.277
TGTTGGAA	-0.217

Sequence	binding signal [E-score]
CCGCTTTA	-0.0374
TCATACGA	0.00225
ACGTAGCA	0.06
ACTGCTGC	-0.0528
CATGGTTA	0.0882
TTGCGCAA	-0.00128
AGTAAGAC	-0.118
ACTTATCC	0.111
ACAGGACA	-0.101
AAATTTGG	0.0224
CAAAGGTA	0.0763
AAGCCCAG	-0.195
AAACAAAT	-0.0125
GCGGGTTA	-0.151
GATTATCC	0.077
AGTTAGCC	0.152
ATGCTCGC	-0.134
TGGTCGAA	-0.227
AGGCTATA	-0.0506
GATCGTCA	-0.00638
GCCGAATA	0.0948
GATGACTA	0.111
ACAGGGCA	-0.232
AATGACGC	-0.115
CGTGTAGA	-0.0913

Sequence	binding signal [E-score]
ACTGTCTG	-0.0894
ACTAACCC	-0.0437
CCAGGCGG	-0.328
CCAGTCAC	-0.146
CTGTTACA	0.136
AAGGGCCT	-0.385
AATAGCGG	0.105
CTCGGATC	-0.06
TAGTCCCA	0.00854
ATGATCAA	0.0844
ATCTACTA	0.456
ACTCACCT	0.117
AGTCCAGG	-0.193
TAGTTATA	0.39
TCCCCTCA	-0.186
ATCGCTAA	0.0943
ACCGTACT	0.132
ATGTTTAG	0.0663
AAATGTGC	0.163
AAGCGAGA	-0.187
AGATTACT	0.254
ACCTGCCT	-0.195
ACACATTG	0.0785
GATCGCCA	-0.0223
CCAGGATC	-0.0112

Sequence	binding signal [E-score]
AGGTGGCC	-0.324
AACTGGCG	-0.0955
AGGCTCCG	-0.212
ATTCGCAA	-0.000958
ACTCCGTC	-0.111
CTAATTAA	0.275
CTCTAAGC	-0.1
CATTCGCG	-0.218
GATAACGC	0.138
ACGTACGC	-0.0326
AATGGAAA	0.0342
CATGCGCG	-0.21
AAAGGGAC	-0.117
AAGGGTGG	-0.149
CATACCAC	0.126
GCCAATCA	-0.2
AAAGTAGG	0.262
CCTTCTGC	-0.174
CGGGACGC	-0.365
ATATCTAG	0.284
ACGGGAAA	0.132
GATGACCA	-0.0618
ATTCACGG	-0.0815
AAAGCCCA	-0.0474
ATAGGAAT	0.265

Sequence	binding signal [E-score]
GTGGCGGA	-0.18
CCCACGCA	-0.185
GCGAGAGA	-0.185
CTGTACCC	-0.124
AGGCCGCC	-0.304
ACCGACAG	-0.113
ACAGTTTG	0.0529
GACCACCA	-0.264
CGCATTAG	-0.0446
ACCTGGTG	-0.193
GTGACAAC	-0.063
AAGCGTAG	0.111
CGTCGTAG	0.0335
CAGAGCTG	-0.154
ATCGTTCC	0.0996
ACTAACAT	0.0145
TCCTCGAA	-0.235
TACGCTCA	-0.14
CTCGCAGC	-0.151
CCGTCACA	-0.0667
ATGAGCAA	0.104
ATAGTCCA	-0.0947
ATCTTGGC	-0.0932
ATAGGGCC	-0.155
GGAACCAA	-0.147

Sequence	binding signal [E-score]
CCGTCACC	-0.232
GTTGTATA	0.351
GAACGTTA	0.178
ACACTAAA	0.0728
ATACCTCG	0.221
GTCACCCA	-0.181
AAGCCGTC	-0.253
ATTAGAGC	0.129
ATGGGCCA	-0.196
GGTCCGAC	-0.143
GACTGTAC	0.159
AGACTTAA	-0.0467
TCACACAA	0.129
AAGTCGCG	-0.113
CGTATTGC	0.0959
ATTCTGGC	-0.0553
AGAAATGG	0.153
GAAAAGAA	0.0697
GCCGCGAA	-0.185
ATGGCATC	0.0263
CACACTAG	0.176
AACTCTAT	0.0996
GCTCAAGC	-0.123
CCTACAAC	0.114
TTAACGAA	0.0989

Sequence	binding signal [E-score]
GCGTAGAA	0.154
CAGGTCCG	-0.126
GCGGAGAC	-0.215
GCCCAGCA	-0.16
ACTGGTCG	-0.246
ACATGTTG	0.0409
CCGCGATA	0.207
GCCAGAGC	-0.3
TATTCAGA	-0.148
CCGCCCAA	-0.0883
CTGAACCA	-0.168
CTATAGCC	0.0226
ATGATAAT	0.286
CAAACATC	-0.00278
CAGAATCA	0.155
ATCAAGTA	0.0281
AACCCGGT	-0.0892
AGAAACTG	0.0822
ACTAGTTG	0.313
CCCTCCGA	-0.188
AAGTCAGA	0.0648
AACATGGA	0.103
AATTGTAC	0.211
CTTTAGAC	-0.00267
TCCTTCAA	0.0337

Sequence	binding signal [E-score]
GGGGATTA	-0.11
GGCTTGGA	-0.316
ACCGATCA	0.0534
AACCACAC	0.141
CCAGCTCC	-0.364
AATAGGAA	0.0721
AAGCCAGG	-0.144
ATTATTCG	0.0864
CACGTCCC	-0.114
ACTGATAC	0.109
ATGGCCGG	-0.258
CGTATATC	0.316
CTTCGCAC	-0.0323
GCATGCGC	-0.245
CACATACG	-0.0463
ACGCGCCG	-0.217
CAAGAATG	0.0543
AGCCGAAG	-0.121
ACACCTTA	-0.112
AAGGGGTA	-0.0952
GCACGATA	0.103
CAACGCAA	0.00655
CCCTAAAC	-0.132
ATCCCGTC	-0.181
ATAGACCA	0.0502

Sequence	binding signal [E-score]
ACTTAGGA	0.097
AGAGTCGC	-0.248
ACGGAGTC	-0.228
ATGAACAG	0.0982
CACTTCTC	-0.125
GTGATACA	0.148
CATACATC	0.0281
GCTTAACA	0.105
CGGCCTAC	-0.19
AACAATCA	-0.00685
CCCACAGA	-0.0946
AGGTAAAT	0.247
CGACGAAA	-0.151
CCTCGCTC	-0.125
CCGTCCTA	0.0295
CGCATCCG	-0.229
AAAGTGGA	-0.114
ACAGAGAC	-0.165
AGATCTCA	0.113
AACTAGAA	0.363
CGGATTTC	-0.106
CCACAACA	-0.0725
TAATTTGA	0.185
ATTCTGAC	-0.158
GGGCTCAA	-0.323

Sequence	binding signal [E-score]
AGAGTTCA	-0.0509
ACCTCATG	-0.163
TACACAGA	0.174
CTGCTGTA	0.0299
CTTCGAGC	-0.266
AAGAGCAA	-0.0707
CGATTTGC	0.05
CGACCGAA	-0.0986
ATAGTAAC	0.28
ACAACGGT	-0.123
GCGGACCA	-0.0341
ACCCGCGG	-0.237
GGGAAAGA	-0.13
AACAAGTT	0.0415
CATAGAAG	0.188
AAAGACCG	-0.0525
GTTAGTTA	0.325
CAATGATG	0.0738
CTACCCTA	0.226
ACTTCCCT	0.141
GAGGCCAC	-0.228
AGGGGGAT	-0.446
CCAGGGAG	-0.125
TGCTACAA	0.207
AGCGTGAC	-0.171

Sequence	binding signal [E-score]
GAAGCTTC	-0.139
CGTACACG	-0.0266
CTGTTAAC	-0.0355
ACGAGCAC	-0.0971
AGAGGCCT	-0.229
AACTAGAC	0.193
AACACCGC	-0.0882
AATTCAGC	0.0672
AAGCTCCG	0.125
AATCACGG	-0.0679
AAAACTCG	0.0917
CTAGGGAA	-0.00393
GAGATATC	0.182
AGGTGCTC	-0.21
AATACCGA	0.185
ACCACTCA	0.117
CAAGGAAG	-0.172
GCTTGCTA	0.166
TAAGGGGA	-0.101
